In PubChem BioAssay AID445 (National Center for Advancing Translational Sciences (NCATS), 2006):
Out of some 110,000 compounds screened, about 40 (0.04%) were called active. This list was built around the results that the source calls inconclusive (neither active nor inactive); the mix of calls is not that of the screen. Calls come from the whole dose curve; as a rule, active = well fitted curve in the direction sought with a large enough effect in the signal ratio (not every such curve was filed as active); inconclusive = small, poorly fitted or top-dose-only effect, or a change in a side signal; inactive = flat fitted curve, though single readings scatter; the % refers to the signal ratio. Where the call is inconclusive, the potency comes from a doubtful curve fit.

Test: IkB Signaling;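 for IkBa stabilization activation: 0% = basal untreated cells and 100% = reference inhibitor full response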
Conditions: ABC-DLBCL IkBa-CBG/CBR dual luciferase ratio (green luciferase fused to IkBa over red control in OCI-Ly3 lymphoma cells), 4 h; IkBa stabilization activation: at 57.1 µM (top of the series), scaled: untreated 0%, proteasome inhibitor 100% unless noted
In short: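 Luminescence ratio of IκBα-fused green versus native red beetle luciferase in OCI-Ly3 cells, 4 h post-doxycycline with compound; red signal alone, scaled from basal (0%) to zero light (-100%), flagged nonspecific or cytotoxic effects.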
Potency is the fitted concentration of half-maximal effect.

Structure (SMILES) | IkBa stabilization activation | Potency
Cc1ccc(CN2CCSc3ccc(C(=O)NCC(C)c4ccccc4)cc32)cc1 (centres undefined) | inconclusive: 0.868% [signal inhibitor] | 
CC(C)(C)N1C(=O)Cc2c1nc(N)c1c(N)nc(N3CCCCC3CO)c(C#N)c21 (centres undefined) |  | inconclusive: 25.1 µM [rising, partial curve]
Cc1ccc(NC(=O)C(C)n2nnc3sc4c(c3c2=O)CCCC4)cc1Cl (centres undefined) | inconclusive: 2.31% [signal inhibitor] | 
Oc1ccc(NCc2ccccc2OCc2ccccc2F)cc1 |  | inconclusive: 25.1 µM [signal inhibitor, partial curve]
CCOC(=O)c1sc(NC(C)=O)c(C(=O)OCC)c1C | inactive | 
CC(=O)c1ccc(NC(=O)CCCSc2nc(-c3ccco3)cc(C(F)(F)F)n2)cc1 | inconclusive: 3.97% [signal inhibitor] | 
CCOC(=O)c1cccc(Nc2cc(-c3ccccc3)ncn2)c1 | inconclusive: -1.57% [signal inhibitor] | 
COc1ccc(-c2c3c(=O)n(C)c(=O)n(C)c3cn2C2CCCCC2)cc1 | inactive | 
Cc1cccc(N(CC(=O)NCc2ccccc2)C(=O)Cn2nnc(-c3ccc(C)o3)n2)c1 | inconclusive: 2.02% [signal inhibitor] | 
CCOC(=O)c1c(C)[nH]c(CCC(=O)NCc2ccccc2Cl)c1C | inconclusive: -0.0839% [signal inhibitor] | 
COc1ccccc1NC(=O)CCN1CCCCC1 | inactive | 
CC(=O)c1ccc(Nc2cc(C)nc3nc(Cc4ccc(Cl)cc4)nn23)cc1 | inconclusive: 1.13% [signal inhibitor] | 
Clc1ccc(CSc2nnc(-c3ccncc3)o2)c(Cl)c1 | inactive | 
CCc1ccc2oc(C(=O)Nc3cc(C)ccc3C)cc(=O)c2c1 | inconclusive: -0.229% [signal inhibitor] | 
CC(C)c1nn2c(=O)cc(COC(=O)c3ccccc3NC(=O)C3CCCCC3)nc2s1 | inconclusive: 0.195% [signal inhibitor] | 
Cc1ccc2cc(C#N)c(NCCNC(=O)C3CCC3)nc2c1C | inactive | 
CC1Cc2ccccc2N1C(=O)CSc1nnc(-c2ccccc2Cl)o1 (centres undefined) | inconclusive: -2.52% [signal inhibitor] | 
CC1CCCCN1S(=O)(=O)c1ccc(C(=O)Nc2nnc(-c3cccs3)o2)cc1 (centres undefined) | inconclusive: 13.2% [signal inhibitor] | 
COCCn1c(=O)c(-c2cn(C)c3ccccc23)nc2cnc(Oc3ccccc3)nc21 | inactive: 0.958% [at 11.4 µM, scaled: untreated 0%, proteasome inhibitor 100%] | 
Nc1nc(-c2nc3ccccc3[nH]2)cs1 |  | inconclusive: 25.1 µM [signal inhibitor, partial curve]
COc1cccc(OCc2nnc(SC)n2C)c1 | inactive | 
NC(=O)c1ncn([C@@H]2O[C@@H](CO)[C@@H](O)[C@H]2O)c1O | inactive | 
Nc1ccccc1CCCC(=O)O | inactive: -1.39% [at 11.4 µM, scaled: untreated 0%, proteasome inhibitor 100%] | 

Structure (SMILES) | IkBa stabilization activation | Potency
Cc1ccc(NC(=O)Cn2ccn(-c3ccccc3)c(=O)c2=O)cc1 | inconclusive: 1.47% [signal inhibitor] | 
Cc1ccc(C)c(N2CCN(C(=O)c3ccc4c(c3)N(Cc3ccc(F)cc3)C(=O)c3ccccc3S4=O)CC2)c1 (centres undefined) | inconclusive: 2.82% [signal inhibitor] | 
CC1CCC(Nc2nc3c(-c4cccc(C(F)(F)F)c4)nnn3c3ccccc23)CC1 (centres undefined) | inconclusive: 0.912% [signal inhibitor] | 
COc1cc(OC)c(NC(=O)CCc2c(C)nc3cc(-c4ccccc4OC)nn3c2C)cc1Cl |  | inconclusive: 20 µM [signal inhibitor, partial curve]
CCOC(=O)CCCCC(=O)c1[nH]c(=O)[nH]c1CSc1nc2ccccc2[nH]1 | inactive | 
COCCOC(=O)c1cc(C(=O)c2cc(F)ccc2O)coc1=N | inconclusive: 3.88% [signal inhibitor] | 
O=C(Nc1cccc(-c2cn3ccsc3n2)c1)c1ccccc1 | inconclusive: 3.69% [signal inhibitor] | 
COc1ccccc1-c1noc(CCC(=O)Nc2ccc(C)cc2C)n1 | inconclusive: 0.816% [signal inhibitor] | 
Cc1cccc(N2CCn3c2nc2c3c(=O)n(CCc3ccccc3)c(=O)n2C)c1 | inconclusive: 4.28% [signal inhibitor] | 
N#CC1=C(N)N(c2cccc(Cl)c2)C2=C(C(=O)CCC2)C1c1cc(CN2CCOCC2)cs1 (centres undefined) |  | inconclusive: 31.6 µM [signal activator, partial curve]
Cc1ccc2cc(C#N)c(N3CCCC3)nc2c1C | inactive | 
Cc1cc2ccccc2n1CCNC(=O)c1ccccc1 | inactive | 
Cc1cccc(N2C(=O)CS(=O)(=O)C23C(=O)N(Cc2c(F)cccc2Cl)c2ccccc23)c1 (centres undefined) | inconclusive: 3.77% [signal inhibitor] | 
CSc1cccc(NC(=O)CN2CCN(Cc3ccccc3C)S2(=O)=O)c1 | inconclusive: -3.7% [signal inhibitor] | 
Cc1cc(C)cc(Oc2coc3cc(OCC(=O)NC4CCCCC4)ccc3c2=O)c1 | inactive | 
Cc1cc(N)c(-n2cc3c(c2-c2ccc(Br)cc2)c(=O)n(C)c(=O)n3C)cc1C | inconclusive: 16.6% [signal inhibitor] | 
C=CCN(CC=C)S(=O)(=O)c1ccc2nc(NC(=O)C(C)C)sc2c1 | inconclusive: 0.611% [signal inhibitor] | 
O=C(O)CCCNc1cc(N2CCN(C3CCCCC3)CC2)c2noc3c2c1C(=O)c1ccccc1-3 | inconclusive: -0.754% [signal inhibitor] | 
O=C(CSc1ncn[nH]1)Nc1nc(-c2ccccc2)ns1 | inconclusive: 2.86% [signal inhibitor] | 
C=CCc1ccccc1OCC(O)CN1CCN(C(=O)OCC)CC1 (centres undefined) | inactive | 
Cc1ccc(-c2cc(-c3cccc(F)c3)n[nH]2)c(O)c1 | inconclusive: 18.4% [signal inhibitor] | 
N#Cc1cccc(-c2nc(N3CCNCC3)c3ccccc3n2)c1 | inactive: -2.87% [at 11.4 µM, scaled: untreated 0%, proteasome inhibitor 100%] | 
Clc1ccccc1-c1nc(Nc2ccncc2)c2ccccc2n1 | inactive: -4.02% [at 11.4 µM, scaled: untreated 0%, proteasome inhibitor 100%] | 

Structure (SMILES) | IkBa stabilization activation | Potency
CCOC(=O)CC(=O)CSCC(=O)Nc1ccc(C)cc1 | inconclusive: 7.38% [signal inhibitor] | 
C=Cc1ccc(Cn2c(C)c(CNCCc3ccccc3C)c(C(=O)O)c2C)cc1 | inconclusive: 4.58% [signal inhibitor] | 
O=C(COc1ccc(Cl)cc1)Nc1ccc(C(=O)OCc2cc(=O)n3ccsc3n2)cc1 | inconclusive: 8.34% [signal inhibitor] | 
FC(F)(F)Oc1ccc2c(c1)NC(c1ccncc1)=NC(c1cccs1)=N2 | inconclusive: 0.578% [signal inhibitor] | 
Cc1ccc(NC(=O)CCSc2nc(-c3ccco3)cc(C(F)(F)F)n2)cc1F | inconclusive: 3.12% [signal inhibitor] | 
O=C(Nc1nc(-c2ccccc2)cs1)C1CCCCN1S(=O)(=O)c1ccccc1 (centres undefined) | inconclusive: 2.78% [signal inhibitor] | 
C=CCc1cccc2cc(C(=O)Nc3ccc(F)cc3)c(=O)oc12 | inconclusive: 8.88% [signal inhibitor] | 
COc1ccc2oc(=O)c(C(=O)Nc3ccc(C(=O)O)cc3)cc2c1 |  | inconclusive: 31.6 µM [signal inhibitor, partial curve]
COCCn1c(C)cc(C(=O)CSc2nnc3ccccn23)c1C | inactive | 
COc1ccc(OCC(=O)Nc2nnc3n2CCS3)cc1 | inconclusive: -0.588% [signal inhibitor] | 
O=C(Nc1ccc(Oc2ccccc2)cc1)c1ccco1 | inconclusive: 3.26% [signal inhibitor] | 
CCOC(=O)N1CCN(Cc2nc3cc(NC(=O)c4ccc(OC)cc4)ccc3n2C(C)C)CC1 | inconclusive: -0.0249% [signal inhibitor] | 
O=C(Nc1ccc2c(c1)OCO2)c1cccc2c1C(=O)N(Cc1cccnc1)C2 | inactive | 
CC(C)c1ccc(NC(=O)c2ccc(F)c(S(=O)(=O)N3CCc4ccccc4C3)c2)cc1 | inconclusive: -1.02% [signal inhibitor] | 
Cc1ccc(CN(C(=O)c2ccccc2F)c2ccccn2)o1 | inconclusive: 6.9% [signal inhibitor] | 
O=C(c1cccn2c(=O)c3cc(Cl)ccc3nc12)N1CCN(c2ccccc2F)CC1 | inconclusive: 3.4% [signal inhibitor] | 
CC(=O)Nc1ccc(S(=O)(=O)N2CCC(c3nnnn3-c3ccccc3)CC2)cc1 | inactive | 
CCOc1ccc(-n2nc(CO)c(C(=O)NCCCc3ccccc3)n2)cc1 | inactive | 
COc1ccc(Cl)cc1NC(=O)Cn1cc(C(=O)c2ccc(C)cc2)c(=O)c2ccc(C)nc21 | inconclusive: 0.493% [signal inhibitor] | 
CCOc1ccc(C(=O)Nc2cccc(C(=O)OCc3cc(=O)n4nc(C5CC5)sc4n3)c2)cc1 | inconclusive: 10.4% [signal inhibitor] | 
CCOC(=O)c1ccccc1NC(=O)CSc1nc(=O)[nH]c2c1CCC2 | inconclusive: 0.699% [signal inhibitor] | 
COc1ccc(CCNC(=O)c2c(O)nc3ccccn3c2=O)cc1 | inconclusive: 1.1% [signal inhibitor] | 
Cc1cc(NC(=O)C2CCN(S(=O)(=O)c3cccc4nsnc34)CC2)ccc1Br | inconclusive: -3.01% [signal inhibitor] | 
